In all, about 360,000 compounds went through this assay and about 25,000 (6.9%) were called active. Inconclusive results, whose numbers are uncertain, are shown with a selection of clear calls. Calls follow the shape of the dose curve; as a rule, active = well fitted inhibition curve with a large enough effect; inconclusive = small, poorly fitted or top-dose-only effect; inactive = flat fitted curve, though single readings scatter. A potency beside an inconclusive call is a rough fit, not a confirmed value.
Biological target: Luciferin 4-monooxygenase (Photinus pyralis) (UniProt P08659)
UniProt P08659, sequence (P08659 whole entry, looked up): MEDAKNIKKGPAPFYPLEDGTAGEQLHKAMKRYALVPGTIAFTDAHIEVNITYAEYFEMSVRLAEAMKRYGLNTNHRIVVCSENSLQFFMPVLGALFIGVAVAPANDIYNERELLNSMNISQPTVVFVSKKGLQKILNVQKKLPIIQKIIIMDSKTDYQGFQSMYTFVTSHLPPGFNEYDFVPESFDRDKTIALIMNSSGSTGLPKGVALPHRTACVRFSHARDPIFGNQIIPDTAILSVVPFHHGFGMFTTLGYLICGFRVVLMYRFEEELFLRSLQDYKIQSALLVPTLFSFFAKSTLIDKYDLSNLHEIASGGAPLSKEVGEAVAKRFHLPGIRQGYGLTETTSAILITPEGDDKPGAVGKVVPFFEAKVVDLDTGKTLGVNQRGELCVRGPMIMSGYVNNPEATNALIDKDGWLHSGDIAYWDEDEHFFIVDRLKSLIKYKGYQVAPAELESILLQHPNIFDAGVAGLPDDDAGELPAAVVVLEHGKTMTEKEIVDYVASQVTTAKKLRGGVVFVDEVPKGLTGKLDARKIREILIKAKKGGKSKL
Experiment: qHTS profiling assay for firefly luciferase inhibitor/activator using purifed enzyme and Km concentrations of substrates (counterscreen for miR-21 project); also: nearly all actives have a fitted effect of over 55% in size;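 as to activity change, negative = inhibition: plate controls were vehicle for no effect and reference inhibitor for full effect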
Details: purified FLuc, luminescence inhibition; series mostly up to 57.5 µM
In short: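 Purified P. pyralis luciferase, 10 nM final, with Km-level 10 uM D-luciferin and 10 uM ATP in 50 mM Tris acetate pH 7.5, 10 mM Mg acetate, 0.01% Tween-20, 0.05% BSA; 6-point qHTS titration about 60 µM downward; luminescence read.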
Potency is read from the fitted curve at half-maximal effect; tags tell the direction and shape of the fitted curve.

Row | SMILES | Potency | activity change, negative = inhibition
1 | CC(C)N(C(=O)CN1C(=O)C(=O)c2ccccc21)c1ccccc1 | inactive | 
2 | O=[N+]([O-])c1ccc(N2CCN(c3ccccc3O)CC2)c(Cl)c1 | inconclusive: 19 µM [inhibitor, partial curve, poor fit] | 
3 | Cc1ccc(NC(=S)c2nc3ccccc3s2)cc1 | active: 0.953 µM | 
4 | Cc1ccc(C(=O)OCC(=O)Nc2cccc(S(=O)(=O)NC3=NCCCCC3)c2)c(C)c1 | inconclusive: 37.9 µM [inhibitor, partial curve, poor fit] | 
5 | Cc1cccc2cc(-c3nc(-c4cccs4)no3)c(=O)oc12 | inconclusive: 0.478 µM [inhibitor, full curve, poor fit] | 
6 | CC(=O)NC(Cc1ccc(F)cc1)C(=O)NC1CCN(C(=O)Nc2cccc(C)c2)CC1 (centres undefined) | inconclusive: 23.9 µM [inhibitor, single point] | 
7 | Cc1nn2c(-c3cccc(NC(=O)c4ccco4)c3)nnc2c2ccccc12 | inconclusive: 15.1 µM [inhibitor, partial curve] | 
8 | O=C(CN1C(=O)NC2(CCc3ccccc32)C1=O)c1ccc2c(c1)OCCO2 (centres undefined) |  | inactive: -4.97% [at 2.3 µM]
9 | C=CCc1c(C)nc(-c2ccccc2)nc1N/N=C(\C)c1ccccc1 | active: 16.9 µM | 
10 | O=C(Nc1nsc(-c2ccccc2)n1)c1cccs1 | active: 4.26 µM | 
11 | COc1ccc(-c2ccc(/C=C3/C(=N)N4C(C)=CSC4=NC3=O)o2)c([N+](=O)[O-])c1 | inconclusive: 7.57 µM [inhibitor, full curve] | 
12 | Fc1ccc(NCc2ccccc2-c2nnc(-c3ccccc3Cl)o2)cc1Cl | inconclusive: 8.49 µM [inhibitor, partial curve] | 
13 | CC(=O)N1CCN(c2ccc(NC(=O)c3ccccc3)cc2)CC1 | inconclusive: 37.9 µM [inhibitor, partial curve, poor fit] | 
14 | C=CCOc1ccccc1C(=O)/C=C1/C(=O)Nc2ccccc21 | inconclusive: 37.9 µM [inhibitor, partial curve, poor fit] | 
15 | CCOC(=O)c1cccc(Nc2nc(-c3cccnc3)nc3ccccc23)c1 | inactive | 
16 | Cc1nnc(NC(=O)c2ccc3ccccc3c2)s1 | active: 10.7 µM | 
17 | Clc1ccccc1-c1nc(N/N=C/c2cccnc2)c2ccccc2n1 | inactive | 
18 | Cc1cc(=O)oc(C)c1C(=O)OCC(=O)c1ccc(Cl)c(Cl)c1 | inconclusive: 26.9 µM [inhibitor, single point] | 
19 | Cc1ccccc1C(=O)Nc1cccc(NC(=O)c2ccc(F)cc2)c1 | inconclusive: 16.9 µM [inhibitor, partial curve] | 
20 | Cc1noc(C)c1COc1ccccc1C(=O)NC1CCC(C)CC1 (centres undefined) | inactive | 
21 | O=C(Nc1cccc(F)c1)NC1CCCCC1 | active: 23.9 µM | 
22 | CCCC1=C/C(=C/c2ccc(-c3ccccc3OC)o2)C(=O)O1 | inconclusive: 9.53 µM [inhibitor, partial curve] | 
23 | N#C/C(=C/c1ccccc1Cl)c1nc(-c2cc3ccccc3oc2=O)cs1 | inactive | 
24 | Cc1ccccc1NC(=O)C(=O)c1cn(C)c2ccccc12 | inconclusive: 2.13 µM [inhibitor, full curve, poor fit] | 
25 | CCc1ccc(C(=O)Nc2ccc3nc(C)ccc3c2)cc1 | active: 5.36 µM | 

Row | SMILES | Potency | activity change, negative = inhibition
26 | CCn1nnc2sc3c(c2c1=O)CCC(C)C3 (centres undefined) | active: 13.5 µM | 
27 | CC(=O)c1nnn(-c2ccc(F)cc2F)c1C | inactive | 
28 | O=C(CCCC(=O)OCC(=O)c1ccc(F)cc1)Nc1cc(C(F)(F)F)ccc1Cl | active: 12 µM | 
29 | Cc1ccc(C(=O)O/N=C(\N)c2ccccn2)c(Cl)c1 | active: 0.019 µM | 
30 | O=C(NC1C=CS(=O)(=O)C1)c1sc2ccccc2c1Cl (centres undefined) | inconclusive: 16.9 µM [inhibitor, partial curve, poor fit] | 
31 | CCOc1ccc(-n2c(SCC(N)=O)nnc2-c2cccnc2)cc1 | inactive | 
32 | NC(=O)/C(N=Nc1ccccc1)=N/Nc1ccccc1 | inactive | 
33 | CCCCN(CC)CCNC(=O)c1nn(C)c2c1CS(=O)(=O)c1ccccc1-2 | inconclusive: 26.9 µM [inhibitor, partial curve, poor fit] | 
34 | O=C(Cn1nnc2ccccc21)OCC(=O)c1ccc(Cl)cc1 | inconclusive: 37.9 µM [inhibitor, partial curve, poor fit] | 
35 | NC(=O)CSc1nnc(NC(=O)c2ccc(S(=O)(=O)N3CCOCC3)cc2)s1 | inconclusive: 21.3 µM [inhibitor, partial curve, poor fit] | 
36 | COC(=O)c1sccc1-c1ccc(/C=N/OC(=O)c2ccccc2)o1 | inconclusive: 23.9 µM [inhibitor, partial curve] | 
37 | C=CCN(CC=C)CCOc1ccc(C)cc1[N+](=O)[O-] | active: 23.9 µM | 
38 | Cc1ccc(NC(=O)CSc2nnc(NC(=O)NC3CCCCC3)s2)cc1 | active: 0.953 µM | 
39 | COc1ccc(Nc2nc(N)c3ccccc3n2)c(OC)c1 | active: 7.57 µM | 
40 | O=C(O)c1ccc(Cl)c(S(=O)(=O)Nc2ccc(OCc3ccccc3)cc2)c1 | inconclusive: 30.1 µM [inhibitor, single point] | 
41 | Cc1oc2ncnc(N3CCCCC3)c2c1C(=O)N1CCN(c2ccc(Cl)cc2)CC1 | inactive | 
42 | O=C(COC(=O)c1ccc([N+](=O)[O-])s1)Nc1ncc(C(F)(F)F)cc1Cl | inactive | 
43 | O=C(Nc1ccc2nc(-c3cccnc3)[nH]c2c1)C12CC3CC(CC(C3)C1)C2 | active: 10.7 µM | 
44 | CC(=O)c1ccc(-c2csc(N3CCC(C(N)=O)CC3)n2)cc1 | inconclusive: 16.9 µM [inhibitor, partial curve] | 
45 | O=c1cc(-c2ccc([N+](=O)[O-])cc2)nc2cc(-c3ccc(Cl)cc3)[nH]n12 | inconclusive: 9.53 µM [inhibitor, partial curve, poor fit] | 
46 | CCOc1ccc(CN2CCC(C(=O)Nc3cccc(-c4ccn[nH]4)c3)CC2)cc1Cl | inconclusive: 23.9 µM [inhibitor, single point] | 
47 | COc1ccc(OCc2cc(C(=O)N3CCOCC3)no2)c(Cl)c1 | active: 6.75 µM | 
48 | CN(C)c1ccc(NC(=O)c2ccc([N+](=O)[O-])cc2Cl)cc1 | active: 4.26 µM | 
49 | COc1c(C)cc(C(=O)C2CCCN(C(=O)CCc3scnc3C)C2)cc1C (centres undefined) | inactive | 
50 | FC(F)(F)c1cc(NC2CCCCC2)ccn1 | inactive | 

Row | SMILES | Potency | activity change, negative = inhibition
51 | CCN(CC)c1ccc(NC(=O)c2ccc(Cl)nc2)cc1 | inconclusive: 37.9 µM [inhibitor, partial curve, poor fit] | 
52 | COc1ccc(Nc2nc(NCc3ccco3)nc(N/N=C/c3ccccc3Cl)n2)cc1 | inconclusive: 30.1 µM [inhibitor, partial curve, poor fit] | 
53 | O=C(Nc1ccc2ccccc2c1)c1ccc2[nH]c(=O)c(=O)[nH]c2c1 | inconclusive: 7.57 µM [inhibitor, partial curve] | 
54 | CC1CCN(S(=O)(=O)c2ccc3c(c2)N(CC(=O)NC(C)(C)C)C(=O)CS3)CC1 | inactive | 
55 | Cc1ccc2nc(-c3ccccc3)cc(C(=O)N3CCc4ccccc4C3)c2c1 | inconclusive: 21.3 µM [inhibitor, partial curve] | 
56 | CCC(CC)NC(=O)c1n[nH]c(=O)c2ccccc12 | inactive | 
57 | COC(=O)c1sccc1OCc1cccc(OC)c1 | inconclusive: 37.9 µM [inhibitor, partial curve, poor fit] | 
58 | Cc1ccc(NC(=O)N2CCc3ccccc3C2)cc1 | active: 12 µM | 
59 | COc1ccccc1NC(=O)Nc1nc(CC(=O)NCc2cccnc2)cs1 | inconclusive: 26.9 µM [inhibitor, single point] | 
60 | COc1cc(C=C(c2nc3ccccc3s2)c2nc3ccccc3s2)cc(OC)c1O | active: 15.1 µM | 
61 | Nc1ccccc1SCc1cc([N+](=O)[O-])cc2c1OCOC2 | inconclusive: 26.9 µM [inhibitor, single point] | 
62 | COc1ccccc1NC(=O)C(=O)Nc1ccc2c(c1)N(C(=O)C1CC1)CCC2 | inactive | 
63 | COc1ccc(OCC(=O)O/N=C(\N)Cc2cccs2)cc1 | inconclusive: 23.9 µM [inhibitor, partial curve, poor fit] | 
64 | COc1ccccc1NC(=O)Nc1nc(CC(=O)NC2CCCC2)cs1 | inconclusive: 15.1 µM [inhibitor, partial curve] | 
65 | Cc1nn(Cc2ccc(Cl)cc2)c(Cl)c1/C=N/NC(=O)c1cccnc1 | inconclusive: 33.8 µM [inhibitor, partial curve, poor fit] | 
66 | CC(=O)N1CCc2c(sc3c2c(=O)n(Cc2ccccc2)c(=O)n3Cc2ccccc2Cl)C1 | inactive | 
67 | CCOc1ccc(NC(=O)N2CCC(n3c(C)nc4cccnc43)CC2)cc1 | inactive | 
68 | CCOc1ccc2nc(Cl)c(C3CC(c4ccccc4)=NN3C(=O)CCC(=O)O)cc2c1 (centres undefined) | inconclusive: 10.7 µM [inhibitor, partial curve, poor fit] | 
69 | COc1cccc(CN2CCNC(=O)C2CC(=O)N(C)C2CCOCC2)c1OC (centres undefined) | inactive | 
70 | Cc1cccn2cc(-c3cccc(NC(=O)c4cccs4)c3)nc12 | active: 4.78 µM | 
71 | Cc1ccc(NC(=O)COc2ccc(/C(N)=N/O)cc2)cc1C | inconclusive: 37.9 µM [inhibitor, partial curve, poor fit] | 
72 | Cc1nc(-c2ccc(-c3ccon3)s2)no1 | inconclusive: 26.9 µM [inhibitor, single point] | 
73 | COc1ccc(S(=O)(=O)Nc2nc3ccccc3nc2Nc2ccc3c(c2)OCO3)cc1 | inconclusive: 37.9 µM [inhibitor, partial curve, poor fit] | 
74 | Cc1ccc(NC(=O)C(=O)NCC2CCCN2S(=O)(=O)c2cccs2)cc1C (centres undefined) | inconclusive: 37.9 µM [inhibitor, partial curve, poor fit] | 

From PubChem BioAssay AID588342 (National Center for Advancing Translational Sciences (NCATS), 2011)
